# Data from the RNAGym collection of RNA variant scans (doi:10.7554/elife.90254).
# The source gives no read counts; variants with many changes may rest on few reads.
# B1: LINE1-mini (parent)
# chain: GGCAGAGCUCAACACAGCGUGGCAAAGUGGCUGUGGCUAGACUGCC
# Variants of: B1
# Test: self-cleavage, relative activity (ratio to wild type); higher = more cleavage; in vitro, sequencing; the parent is a self-cleaving ribozyme
row,Variant,self-cleavage
1,GGCGGAGCUCAACCCAACGUGGAAAAGAGGCUGUGGUUAGACAGCC [A4G A14C G17A C23A U28A C37U U43A],0
2,GACAGCGCUAAACACAGCGUGGCAAAGUGGCUGUGGCUAGACUGCC [G2A A6C C10A],0.02
3,GGCAGAGCUCAACACAGCGUGGGAAAGUGGCCAUGGCCAGACUGCC [C23G U32C G33A U38C],0.02
4,GGGAGAGCUCAACACAGCGUGGCAAAGUGACUGUGGCUAAACUGCC [C3G G30A G40A],0.18
5,GGCAGAGCUAAACACAGCGUGGCAACGUGUCUGUGGCUAGACUGCC [C10A A26C G30U],0.01
6,GCCAGAGCCCAACACAGCGUGGCAAAGCGGCUGUGGCUAGACUGCC [G2C U9C U28C],0.03
7,GGCAGAGCUCAACACAGCGGGGCAAAGUGGCUGAGGCUAGAAUGCC [U20G U34A C42A],0.02
8,GGCCGAGCUUAACACAGCGUUGCAAAGUGGCUGUGGCUAGACUGCA [A4C C10U G21U C46A],0.03
9,GGCAUAGCUCAACAAAGCGUGGCAAAGUGGCUGUGUCUAGACUACC [G5U C15A G36U G44A],0.02
10,GGCAGAGCUCAACACAGCAUGGCAAAGUGGCCUUGGCUAGACUGCC [G19A U32C G33U],0.04
11,GGCAGAGCUCACCACAGCGUUGCAAAGUGGCUGGUGCUAGACUGCC [A12C G21U U34G G35U],0.01
12,GGCUGAGCUCAACACUGCGUGGCAGAGUGCCUGUGGCAAGACUGCC [A4U A16U A25G G30C U38A],0.05
13,GGCAGAGCUCAACACAGCCUGGCAAAGUGUCUGUGGCUAGGCUGCC [G19C G30U A41G],0.06
14,CGCAGAGCUCGACACAGCGUGGCAAAGCGGCUGUGGCUAGACUGUC [G1C A11G U28C C45U],0.01
15,GGCAGAGCUCAACACAGCGUUGCAAAGUGGCUGUGGCCAGACGGCC [G21U U38C U43G],0
16,CGCAGAGCUCAAAACAGCGUGGCAAAGUGGCUGUGGCUUGACUGCC [G1C C13A A39U],0.06
17,GGCAGAUAUCAACACAGCGUGGCAAAGUGGCGGUGGCUACACUGCC [G7U C8A U32G G40C],0.18
18,GGCAGAUUACAACACAGCCUGGCAAAGUGGCUGUGGCUAGACUGCC [G7U C8U U9A G19C],0.06
19,GGCAGAGCUCAACACAGCGUGUCAAAGCGGCUGUGGCCAGACUGCC [G22U U28C U38C],0.17

row,Variant,self-cleavage
1,GGCAGAGCUCAACACGGCGUUGAAAAGUGGCUGUGGCUAGACUACC [A16G G21U C23A G44A],0.11
2,GGCAGAGGUCAACACAGCGUGGCAAAGUGGCUGGGGCUACACUGCC [C8G U34G G40C],0.03
3,GGCAGGGCACAACACAGCGUGGCAAAGUGGCUGUGGCUAGACGGCU [A6G U9A U43G C46U],0.43
4,GGCAGAGCUCAGCACAGCCUGGCAAAGUGGCUGUGGAUAAACUGCC [A12G G19C C37A G40A],0
5,GGCAGAGCUCAACACAGCGUGGCAACGUGGCCGUGCCUAGACUGCA [A26C U32C G36C C46A],0.06
6,GGCAGACCUCACCACAGCGUGGCAAGGUGGCUGUGGCUAGACUGCC [G7C A12C A26G],0.02
7,GGCAGAACUAAACACAGCGUGGCAAAGUGGCUGUGGCUUGACUGCC [G7A C10A A39U],0.02
8,GGCAGAGCUCAACACAGCGGGGCAAAGUGCCUCUGGCUAGACUACC [U20G G30C G33C G44A],0.02
9,GGCAGAACGCAACACAGCCUCGCAAAGUGGCUGUGGCUAGACUGCC [G7A U9G G19C G21C],0.02
10,GGCACAGCUCAACACAGCGCGGCACAGUGGCUGUGGCUAGACUGCC [G5C U20C A25C],0.03
11,GGCACAGCUCAACACAACGUGGCAAAGUGGCUCUGGCUAGACUGCC [G5C G17A G33C],0.04
12,GGGAGAGCACAACACAGCGUGGGAAAGUGGCUGUGGCUAGAUUGUC [C3G U9A C23G C42U C45U],0.08
13,UGCAGAGCUCAAGAUGGCGUGGCAAAGUGGCUGUGCCUAGACUGCC [G1U C13G C15U A16G G36C],0.07
14,GGUAGAGCUGAACACGGCGUGGCAAAGUGGCUGUGGCAAGACUGCC [C3U C10G A16G U38A],0.01
15,GCCAGUGCUCAACACAGCGUGGCAAAGUGGCUGUGGCGAGACUGCA [G2C A6U U38G C46A],0.1
16,GGAGGAGCUAAACACCGCGUGGCAAAGUGGCUGUGGCUAGAAUGCC [C3A A4G C10A A16C C42A],0.01
17,GGCAGAGCACAAUACAGCGUGGCAAAUUGGCUGUGGCUAGACUGCC [U9A C13U G27U],0.1
18,GGCAGAGCUCAACACACCGUCGCGAAGUGGCUGUGGCUAGACUGCU [G17C G21C A24G C46U],0.14
19,GGCAAAGCUCAACACAACGUGGCAAAGUGGCUGUGGCUAGACUGCU [G5A G17A C46U],0.17

row,Variant,self-cleavage
1,GCCAGAGCUCAACACAGUCUGGCCAAGUGGCUGUGGCUAGACUUCC [G2C C18U G19C A24C G44U],0.03
2,GGCAGACCUCAACACAGCGUGGCAAAGUGGCUGUGGCUUAACUGCC [G7C A39U G40A],0.53
3,GGCAGAGCUGAAUACAGCGUGCCAAGGAGGCUGUGGCUAGACUACC [C10G C13U G22C A26G U28A G44A],0
4,GGCAGAGCUCAACAAAGCGUGGCAUAGUGGCUGUGGCCAGACUGCC [C15A A25U U38C],0.04
5,CGGGGAGCUCAACACAGCGUGGCAAAUUGGCUGUGGCUAGACUGCC [G1C C3G A4G G27U],0.05
6,GGCAGAGCUCAACACAGGGUGGCAUAGUGGCUGUGGCAAUACUGCC [C18G A25U U38A G40U],0.02
7,GGCAGAGCUCUACACAGCGUGGCAAAAUGUCUGUAGCAAGACCGCU [A11U G27A G30U G35A U38A U43C C46U],0.01
8,GGCAGAGAUCAACACAGCGUGCGAAAGUGGCUGUGGCUAAACUGUC [C8A G22C C23G G40A C45U],0.06
9,UGCAGCGCAAAACACAGCGUGGCAUAGUGGCUGUGGCUAGACUGCC [G1U A6C U9A C10A A25U],0.03
10,GGCACAUCUCAACACACCGUGGCAAAGUGGCUGUGGCUUGACUGCC [G5C G7U G17C A39U],0.78
11,GGCAGAGCUCAACAAAGCGUGGUAAAGUGGCUUUGGCUAGACUGCC [C15A C23U G33U],0.68
12,GGCAGAGCUUAACACACCGUGGCAAAGUGGCUGUGGGUAGACUGCC [C10U G17C C37G],0.05
13,UGCAGAGCUCAACACAGCCUAGCAAACUGGCUGUGUCUAGGCUGCU [G1U G19C G21A G27C G36U A41G C46U],0.02
14,GGCAGAGCUCAAAACAGCGUGGCAAAGUGGCUGUCGGUAGACCGCC [C13A G35C C37G U43C],0.03
15,CGCAGAGCUUUACACAGCGUGGCAAAGUGGCUGUGGCUAGACUGCC [G1C C10U A11U],0.01
16,GGUAGAGCUCAACACAGCAUGGUAAAGUGGCUGUGGCUAGACUGCC [C3U G19A C23U],0.24
17,GGCAGAGCUCAACACAGCGUGGCAAGGUGGCUGUUGCUUGACAGCC [A26G G35U A39U U43A],0.02
18,GGCAGAGCUAAACACAGCGUGGCAAAGUGGCUGUGGAUCGUCUGCC [C10A C37A A39C A41U],0.02
